Results on 43 compounds are retold here after paper PMC4336329 (PLoS ONE, 2015).

In all, about 310,000 compounds went through this assay and about 14,000 (4.5%) showed an effect of 50% or more. Effects have a minus sign here. The list shows a part of the results.
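Further: peak tail current of the secondary pulse compared with the same well before compound.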

For the assay, the target named is human ether-à-go-go-related gene (hERG) potassium channel (human, UniProt Q12809). Briefly: primary screen, population patch clamp on CHO cells stably expressing hERG.
Sequence of human ether-à-go-go-related gene (hERG) potassium channel (Q12809 whole entry, looked up): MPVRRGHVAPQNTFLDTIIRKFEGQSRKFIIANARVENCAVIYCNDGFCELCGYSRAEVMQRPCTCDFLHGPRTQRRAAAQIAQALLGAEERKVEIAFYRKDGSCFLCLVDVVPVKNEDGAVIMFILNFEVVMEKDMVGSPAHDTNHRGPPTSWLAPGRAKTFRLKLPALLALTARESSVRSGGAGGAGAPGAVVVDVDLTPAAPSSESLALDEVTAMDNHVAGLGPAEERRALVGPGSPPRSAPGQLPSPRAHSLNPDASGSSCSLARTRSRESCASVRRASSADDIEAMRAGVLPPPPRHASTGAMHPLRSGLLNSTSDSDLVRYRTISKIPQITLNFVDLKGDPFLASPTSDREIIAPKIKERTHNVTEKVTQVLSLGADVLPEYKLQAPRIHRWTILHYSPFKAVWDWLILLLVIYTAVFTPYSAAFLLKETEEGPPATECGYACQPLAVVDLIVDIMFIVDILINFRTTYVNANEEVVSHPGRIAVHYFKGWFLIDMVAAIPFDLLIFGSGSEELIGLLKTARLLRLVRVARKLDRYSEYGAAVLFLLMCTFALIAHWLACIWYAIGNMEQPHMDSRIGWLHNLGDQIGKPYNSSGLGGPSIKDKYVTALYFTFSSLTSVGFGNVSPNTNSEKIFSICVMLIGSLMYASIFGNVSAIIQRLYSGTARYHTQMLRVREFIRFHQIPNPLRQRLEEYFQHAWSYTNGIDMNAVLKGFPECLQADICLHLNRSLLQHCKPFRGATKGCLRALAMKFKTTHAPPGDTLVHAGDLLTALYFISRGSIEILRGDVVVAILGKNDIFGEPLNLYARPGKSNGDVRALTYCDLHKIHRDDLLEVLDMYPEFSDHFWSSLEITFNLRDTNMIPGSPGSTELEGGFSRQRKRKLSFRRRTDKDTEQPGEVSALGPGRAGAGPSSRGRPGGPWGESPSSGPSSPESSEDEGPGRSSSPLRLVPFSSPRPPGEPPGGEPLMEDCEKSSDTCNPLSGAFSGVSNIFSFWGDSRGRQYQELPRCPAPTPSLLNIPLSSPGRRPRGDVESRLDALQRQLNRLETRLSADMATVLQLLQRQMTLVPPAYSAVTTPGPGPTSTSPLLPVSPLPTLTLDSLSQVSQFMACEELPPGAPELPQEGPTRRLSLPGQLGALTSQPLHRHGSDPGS
For `O=C(N/N=C\c1cc2c(cc1[N+](=O)[O-])OCO2)c1cccs1`, the “hERG current change (%, negative = inhibition) at 10uM” value is reported as -2.16%. As for `COc1ccc(CC(=O)O/N=C(\N)Cc2ccc(OC)c(OC)c2)cc1`, the “hERG current change (%, negative = inhibition) at 10uM” value came to 4.5%. In the case of `Cc1sc2nc(CN3CCCC3)nc(N3CCN(S(=O)(=O)c4ccccc4)CC3)c2c1C` it was -67%; in that of `CC(=O)c1ccc(NC(=O)c2cn(-c3ccccc3)nc2-c2ccncc2)cc1`, -15.7%; in that of `CC(N=Cc1c(O)n(C2CC2)c(=S)[nH]c1=O)c1ccccc1` (stereo not shown), 5.29%. In the case of `Cc1nc2c(o1)CCc1ccccc1C2N1CCN(C)CC1.O=C([O-])/C=C\C(=O)[O-]` (stereo not shown) it was 12.4%. In the case of `CCN(CC)S(=O)(=O)c1ccc2nc(NC(=O)c3cccs3)sc2c1` it was 2.85%; in that of `Cc1ccc(NP(=O)(Oc2ccccc2F)Oc2ccccc2F)cc1C`, 7.46%.

Consider `COc1cccc(CNc2ccc3[nH]c(=O)[nH]c3c2)c1OCc1ccccc1`, for which the “hERG current change (%, negative = inhibition) at 10uM” value is on record as 5.57%. In the case of `CC(=O)c1c(C)[nH]c(C)c1C(C)=O` it was 4.16%.

In the case of `Nc1nc(-c2c[nH]c3ccccc23)cs1`, the “hERG current change (%, negative = inhibition) at 10uM” value came to 17.5%. Take `CCS(=O)(=O)N1CCCC(C(=O)NC2CCCC2)C1` (stereo not shown): the “hERG current change (%, negative = inhibition) at 10uM” value is reported as -2.59%. Consider `CCNC(=S)Nc1ccc(OCc2nc3ccccc3s2)cc1`, for which the “hERG current change (%, negative = inhibition) at 10uM” value worked out at 11.5%.

For `O=S(=O)(Nc1ccc2cn[nH]c2c1)c1ccccc1`, the “hERG current change (%, negative = inhibition) at 10uM” value was 3.23%. For `COc1ccc(N=C2SC(CC(=O)Nc3ccccc3)C(=O)N2Cc2ccccn2)cc1` (stereo not shown) the value was 5.59%; for `CCC(=O)Nc1cc(-c2cc3ccccc3oc2=O)ccc1OC`, -29.6%; for `COc1ccc(OC)c(N/C=C2/CCCCC2=O)c1`, -11.1%. In the case of `CC(=O)NN1C(=O)/C(=C\c2ccc(O)cc2)SC1=S` it was -0.495%; in that of `O=C(NC1(C(F)(F)F)N=C(c2ccccc2)NC1=O)c1ccccc1F` (stereo not shown), 11.5%; in that of `CCOC(=O)N1CCN(CC(=O)Nc2c(C(=O)OC)[nH]c3cc(C)ccc23)CC1`, -32.5%. As to `CCOC(=O)Cc1cc(=O)c2cc(C)ccc2[nH]1`, the “hERG current change (%, negative = inhibition) at 10uM” value stood at 16.7%. Consider `Cc1ccc(NC(=O)/C(=C/c2ccco2)c2ccccc2)c(C)c1`, for which the “hERG current change (%, negative = inhibition) at 10uM” value came to 8.65%. Turning to `O=C(CN1CCN(c2ccccc2F)CC1)Nc1cccnc1Cl`, the “hERG current change (%, negative = inhibition) at 10uM” value stood at 11.1%.

Consider `O=C(NCCN1CCCCC1)Nc1ccccc1F`, for which the “hERG current change (%, negative = inhibition) at 10uM” value was found to be 7.87%.

For `COCCNC(=O)C1CC(c2ccccc2C(F)(F)F)=NO1` (stereo not shown), the “hERG current change (%, negative = inhibition) at 10uM” value was determined as 12.7%. For `COc1cc(NC(=O)CN2CCN(Cc3ccc4c(c3)OCO4)CC2)cc(OC)c1.O=C(O)C(=O)O` the value was -47%. For `CCCCn1c(N)c(N(Cc2ccccc2OC)C(=O)COc2cc(C)ccc2Cl)c(=O)[nH]c1=O` the value was 10.1%; for `COc1ccnc(CS(=O)c2nc3cc(C(O)(F)F)ccc3[n-]2)c1OC.[Na+]` (stereo not shown), -30.1%. For `CCN(CC)/C(Sc1ccccc1)=C(/C(Cl)=C(Cl)Cl)[N+](=O)[O-]` the value was -3.92%; for `Cn1sc(NC(=O)c2cccc(Cl)c2)nc1=O`, 2.35%. For `CS(=O)(=O)N1N=C(c2ccco2)CC1c1ccccc1Cl` (stereo not shown), the “hERG current change (%, negative = inhibition) at 10uM” value was 5.49%.

Turning to `O=C(Nc1ncc(Cc2cccc([N+](=O)[O-])c2)s1)c1ccco1`, the “hERG current change (%, negative = inhibition) at 10uM” value is on record as -6.91%.

Take `COc1cc(CN2CCN(CCCc3ccccc3)C(CCO)C2)cc(OC)c1O` (stereo not shown): the “hERG current change (%, negative = inhibition) at 10uM” value is -61.5%. Turning to `Cc1ccc2cccc(OCC(=O)Nc3cccc(S(=O)(=O)N4CCCC4)c3)c2n1`, the “hERG current change (%, negative = inhibition) at 10uM” value amounted to 4.92%. In the case of `CCC(C)N1C(=O)/C(=C\c2cnc(N(C)C)nc2)C(=O)NC1=S` (stereo not shown), the “hERG current change (%, negative = inhibition) at 10uM” value is reported as 17.4%.

As to `CCNc1ccc(S(=O)(=O)N(C)C)cc1NCC(=O)Nc1ccccc1Cl`, the “hERG current change (%, negative = inhibition) at 10uM” value is given as -5.8%.

On to `CCOc1nc(NCc2ccco2)nc(Nc2ccc(OC)cc2)n1`, for which the “hERG current change (%, negative = inhibition) at 10uM” value is recorded as 2.06%. For `Cc1cc(NS(=O)(=O)c2ccc(NC(=O)C(F)(F)F)cc2)nc(C)n1`, the “hERG current change (%, negative = inhibition) at 10uM” value was 21.3%.

On to `Cc1ccc[n+](CC(=O)c2ccccc2)c1.[Br-]`, for which the “hERG current change (%, negative = inhibition) at 10uM” value was found to be 13.7%. For the compound `COc1ccc(S(=O)(=O)N2CCCCC2)cc1NC(=O)CSc1ncnc2ccccc12`, the “hERG current change (%, negative = inhibition) at 10uM” value is -51.2%.

On to `COc1ccc(N=Cc2c(O)cc(C)oc2=O)cc1`, for which the “hERG current change (%, negative = inhibition) at 10uM” value is recorded as 11.7%. In the case of `O=[N+]([O-])c1ccccc1Oc1ccc(C(F)(F)F)cn1` it was -7.4%; in that of `Nc1ccc(C(=O)N2N=C(c3ccc(F)cc3)CC2(O)C(F)(F)F)cc1` (stereo not shown), -2.02%.
